Read counts are not given, so values of variants with three or more changes are uncertain.

B1: OR4K15 (parent)
chain: GUUAACGGUCAUAGGCCAUGGAAACUAGGAGCACCAUUUCGCUGCCAGUGAAGAAAUGAACAAAGAAAAUCUGGGCCAGGCAGGCAUCAAAAGAAAUAGUCUUGCGCUCAACCAGAAAGUCUGUAAUCAUUUUAAGGGUA

This data set covers variants of B1. Nature of the data set: self-cleavage, relative activity (ratio to wild type); higher = more cleavage; in vitro, sequencing; the parent is a self-cleaving ribozyme.
With U26A A51G A96G, the self-cleavage came out at 0.75.
As to U26A A66G U122C, the self-cleavage was 1.17.
As for A24G A62G A111G, the self-cleavage was 0.01.
To A24G A27U A86G A114G belongs 0.47; to A24G A33G A54G, 0.73; to A24G A27G U102A, 1.
To A24G A30G A47G A55G A94G belongs 0.56; to A24G U103C U124A, 0.45; to A24C U26C A59G A125G, 0.39.
With A24G U120C U130C, the self-cleavage amounted to 0.48.
In the case of A24G U49C U72A it was 0.35; in that of A24G U57C U102A A114G A118U, 0; in that of A24G A82U A92G A117G, 0.18.
As to U26A C46U A47C A82U, the self-cleavage was 0.21.
A24G A30G A64C A95G A116G: the self-cleavage was 0.66.
To C25A A33U U103C belongs 0.88.
As for A24C A95G U103C, the self-cleavage was determined as 1.37.
Take A24G U39C A55U U131C: the self-cleavage came out at 0.67.
Regarding A24G U49C A69C A82U A140G, the self-cleavage is 0.23.
Turning to A24G A96G U122C, the self-cleavage was determined as 0.87.
For A24G A60G U124C, the self-cleavage was 0.67.
Take A24G U49C U100A: the self-cleavage is 0.64.
To A24U A30G C45U A67G A118G U127C belongs 0.56; to A24U A96G U97C, 1.28.
As for U26A A56G U102C, the self-cleavage stood at 1.48.
Take A24U G41A A96G U132C: the self-cleavage stood at 1.13.
Regarding A24G G28A U97A, the self-cleavage turned out to be 1.81.
Take U26C A60G A94G: the self-cleavage is 1.53.
For A24G U37C A51G A54G A95G, the self-cleavage was found to be 0.64.
As for A24G A33C A55G U108C A117G U132C, the self-cleavage stood at 0.01.
With A24G U57G A140G, the self-cleavage came to 0.86.
On to A24G U43C A116C G138A, for which the self-cleavage came to 0.05.
On to U26C A62U A117U A126G, for which the self-cleavage was determined as 0.56.
In the case of U26C A51G U70A A111G it was 0.04; in that of U26C A90G A92U U103C U132C, 0.19; in that of U26C U57A A98G U120C, 0.13.
To A24G A36G U122C U139C belongs 0.28.
Regarding U26A A27G A69G U72C, the self-cleavage came out at 0.31.
In the case of A24G A30C A95G A114G A126G, the self-cleavage stood at 0.15.
Turning to A24G A52U U130C, the self-cleavage worked out at 1.06.
In the case of A24C G29A U57A it was 1.69.
In the case of A24U A68U U108A U122A it was 0.03; in that of U26C A33U U49C A78G A98U, 0.26.
To A24G A78G U124C belongs 0.06.
As for U26A A55G A91G A116G U131C, the self-cleavage is 0.39.
Regarding A24G U57C A95G U100C, the self-cleavage turned out to be 1.56.
Regarding A24G A33G U131C, the self-cleavage came to 0.92.
Consider U26C A92G A118U, for which the self-cleavage came to 0.81.
Regarding A24C U26C A68G A90G A91G A98U U122C, the self-cleavage worked out at 1.25.
In the case of A24G A111G U133C it was 0.05; in that of A24G A68G A89G, 0.91.
On to A24G U57C A60U A62G, for which the self-cleavage amounted to 1.2.
To A24G U37A A52G A56G U108G belongs 0.01; to U26C A30G A51G U102C, 1.43.
In the case of A24G A55G A64G it was 1; in that of A24C U37C G83U A117G C128U, 0.39; in that of U26C U39A A54G A118G, 1.43.
In the case of A24G G44A A51G A78U, the self-cleavage is 0.65.
Regarding U26C A56G A92G A129G, the self-cleavage worked out at 0.75.
To U26C A91G U108C belongs 0.02; to A24G C40U A78G U108C, 0.03; to U26C A33G G65U A126U U132C, 0.58.
To A24G U43C A118G U122C U131C belongs 0.48.
In the case of A24G A66G A69U it was 1.31; in that of A24G A55U A78U, 0.34; in that of A24G A64C A98G A117G, 0.39.
Turning to U26C A96G U122C, the self-cleavage is 2.05.
For the variant A24G U49C A62G A64G, the self-cleavage was determined as 1.27.
Turning to A24G U72C U103C, the self-cleavage was found to be 0.16.
Regarding U26A A30G G50U U72A A86G, the self-cleavage was 0.18.
Consider A24G A82G A92G U127C, for which the self-cleavage amounted to 0.16.
U26C U49C A60G A62G: the self-cleavage turned out to be 0.77.
A24G A68G A90G A116G: the self-cleavage came out at 0.22.
C25A A51G A60G: the self-cleavage was found to be 0.87.
As to A24U A27G A33C U39C U70A, the self-cleavage was determined as 0.42.
For the variant A24G C40U A47U, the self-cleavage stood at 0.9.
As for U26C A36U U38C A52G A55G A62G A90G U120C, the self-cleavage turned out to be 0.38.
A24G C32U A36U A62G A86G U103C: the self-cleavage was 0.39.
In the case of A24G U38C U39A A62G G83A U131C, the self-cleavage amounted to 1.18.
For the variant U26A G41A U43C A69G A117G, the self-cleavage worked out at 1.38.
For the variant A24G A52G U120A, the self-cleavage came to 1.47.
In the case of A24G G93A U132C it was 0.98; in that of U26C A27G A89U, 1.43; in that of A24G U49C U57G U97C, 0.93.
To U26C A63G A114G belongs 0.71.
In the case of U26C U39C A56C C71A, the self-cleavage stood at 0.08.
On to A24G A89C A110G A111G, for which the self-cleavage stood at 0.17.
To A24G A59G A118G belongs 0.51; to A24G A30G A47C, 1; to A24G A62G A69G A90G A96G, 1.07.
As to A24G A64G U102C A117G U127A U130C, the self-cleavage is 2.54.
In the case of A24G A92G A140U, the self-cleavage was found to be 1.65.
For the variant A24U A56G U103C, the self-cleavage stood at 1.43.
Take C25U U49C U57C A92C A111G: the self-cleavage was 0.
Take A24G U37C U72A A82G A86U A95G A140G: the self-cleavage was found to be 0.16.
To C25G A67G A82G A114G belongs 0.21.
To U26A U57A A90U U100C belongs 1.94; to A24U A95U A98G A116U, 0.13; to A24U A56G A86G U132C, 1.22.
For the variant U26C U57C U70C, the self-cleavage came out at 0.37.
Regarding C25A A36G U97C U130G, the self-cleavage worked out at 0.25.
In the case of U26C A27G A30U it was 0.94; in that of A24G A62G U130C, 1.27; in that of A24C A86G A118G, 1.25.
Turning to A24U U102C U130C, the self-cleavage came out at 1.85.
Consider U26A A62G A94C A129U, for which the self-cleavage was found to be 0.22.
With A24C U43A A67G, the self-cleavage came out at 1.55.
A24G G53U A94G A135G: the self-cleavage came to 0.76.
Turning to U26C A69G A92G, the self-cleavage was 1.09.
Take A24G U120C U127C: the self-cleavage was determined as 1.04.
As for A24G C34U A55G U57C A67G A94G, the self-cleavage was found to be 0.89.
For the variant U26A A56C A82G A114G, the self-cleavage was found to be 0.09.
For the variant A24G A64G A91G U102C, the self-cleavage was found to be 1.57.
For the variant A24G U38A A91G U100C, the self-cleavage stood at 0.88.
As for A24G A67G A90G A111G A126G, the self-cleavage came to 0.
As to A24U U49C U122C, the self-cleavage is 0.46.
On to A24G U39C A67G, for which the self-cleavage turned out to be 1.41.
A24U U39A G41C A59G U102C: the self-cleavage came out at 0.63.
Take A24U C45A A63G A64G C88A A94G A95G C128U U130C: the self-cleavage came out at 1.3.
In the case of U26C U37C A125G it was 0.45; in that of U26C A114G A135U, 0.01; in that of U26C A118U U122C, 0.75.
As for U26C A33C A90G U130C, the self-cleavage is 0.88.
Turning to A24G U39C A90G U108G, the self-cleavage is 0.02.
Regarding A24G A52G A82G A96G A117G U122C, the self-cleavage came to 0.28.
For the variant U26C A68G A95G A117G, the self-cleavage was found to be 2.1.
In the case of A24G U70C A111G G123A it was 0.02.
For U26C G75C A129G, the self-cleavage was found to be 0.08.
For A24G A116U A117G, the self-cleavage was found to be 0.36.
A24G A82G U87A U130C: the self-cleavage was found to be 0.14.
Regarding C25U U49C A52G, the self-cleavage was 1.67.
For A24G A56G A59G A78G A89U U124C, the self-cleavage turned out to be 0.04.
With A24G U57C A82G, the self-cleavage amounted to 0.3.
For U26A A68G C105U A126G, the self-cleavage was 0.11.
To A24G U108C A110G belongs 0.02.
On to U26A A59U U70C, for which the self-cleavage worked out at 0.84.
In the case of A24G U72G U87C, the self-cleavage is 0.34.
As for A24G A89G G136U, the self-cleavage is 1.34.
For the variant A24G U57A U124A, the self-cleavage was found to be 0.89.
For the variant A24G A33G U122C, the self-cleavage amounted to 1.28.
With A24G A30G U39A A54G U57C U70C A126U, the self-cleavage was found to be 0.44.
Consider A24G A59G U124C, for which the self-cleavage is 0.56.
A24G A64G A117G: the self-cleavage is 1.07.
A24G U43C U70A A95G: the self-cleavage stood at 1.21.
As to A24U U43C U70C U108C, the self-cleavage worked out at 0.01.
In the case of C25U A66U A86U it was 0.82.
To U26C A52G U102C U120C belongs 2.19.
To C25G A67G U100A G136U belongs 0.97.
Turning to C25U A64G U132C, the self-cleavage was 1.02.
Consider C25U A68G A117G, for which the self-cleavage is 2.31.
To A24G A55G A82G A86U belongs 0.39; to A24U U49C A110G, 0.17.
With A24G A60G U70C U103C, the self-cleavage was found to be 0.67.
As for A24U A36G U43C, the self-cleavage was determined as 1.7.
To A24G A30U U127C belongs 0.27.
For U26C A68G G74U U103C U122A, the self-cleavage was determined as 0.05.
For the variant A24C U38C A47U U130C, the self-cleavage is 1.13.
In the case of A24G U37A A55G it was 1.47.
To A24G A55U A94G A117G belongs 1.82.
As to A24G A33G U37C A111G, the self-cleavage worked out at 0.08.
Take A24G C46U A95G: the self-cleavage was determined as 2.72.
In the case of A24G A59G U102C U130C it was 0.35.
For A24G A67G A91G, the self-cleavage stood at 1.77.
On to A24G A30G G50A A91G A116G, for which the self-cleavage was 0.15.
To A24G U43C A69U U70C belongs 1.01; to A24U A118U A126G, 0.49.
Take U26C A54G A64G A116G U120C: the self-cleavage came to 0.34.

Source of the values: the RNAGym collection of RNA variant scans (doi:10.7554/elife.90254).
